Values marked as one replicate rest on one cluster of the flow cell; about a third of the high ones do not repeat.
tested on: ATP; assay: switch fluorescence ratio, 500 uM ATP over buffer (Cy3 cluster intensity, sum of 5 cycles each) (fold (ratio)); higher = stronger signal-on switching upon ATP binding; sequences stand for … in TCGTCGGCAGCGTCAGATGTGTATAAGAGACAGTTTTTTTTTTTTTTTTTTTTTTTTT…TC; settings: aptamer strand: ATP DNA aptamer (quencher-CACCTGGGGGAGTATTGCGGAGGAAGG + anchor), 100 nM annealed; ATP concentration: 500 uM; one replicate
Outline: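 Cy3-labelled switching-strand clusters on a modified Illumina MiSeq flow-cell were annealed to 100 nM quencher-labelled ATP aptamer, imaged in selection buffer, then imaged after 15 min with 500 uM ATP at 22 °C. Five buffer/ATP cycles ran, with NaOH stripping and re-annealing between them. The fluorescence ratio is summed target-cycle over summed buffer-cycle Cy3 intensity per cluster, averaged per switch-domain sequence. Clusters outside 100-1000 RFU were excluded.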
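Note: ATP exposure 15 min at 22 °C before imaging.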

Sequence	switch fluorescence ratio
TCGGCGGATG	1
TCGGCGGGAT	1.01
TCGGCGGTCC	0.973
TCGGCGTGT	1.06
TCGGCTACC	1.05
TCGGCTGATC	0.992
TCGGCTGCCA	0.98
TCGGCTTCGC	1.13
TCGGCTTTAT	1.02
TCGGGACCAT	0.992
TCGGGCCTCG	1.02
TCGGGCGCTA	1.02
TCGGGCTGAT	0.987
TCGGGGCCTA	1.02
TCGGGGCCTG	0.947
TCGGGGCTTA	0.996
TCGGGGTGAG	0.986
TCGGTACAGC	1
TCGGTCCGGT	0.955
TCGGTCTCAA	1.05
TCGGTGCCGT	1.02
TCGGTGGACG	1.14
TCGGTGGTTC	1.02
TCGGTTAACA	0.946
TCGGTTAATT	1.01

Sequence	switch fluorescence ratio
TCGGTTCATA	1
TCGGTTCTGC	1.08
TCGTAAGATG	1.01
TCGTAAGGT	1.05
TCGTAATAAG	1.02
TCGTACGGAA	1.14
TCGTAGACAG	0.954
TCGTAGTTAC	2.47
TCGTCCACA	1.18
TCGTCGACAA	2.94
TCGTCTGTTT	1
TCGTCTTTGT	1.01
TCGTGCCCTG	0.997
TCGTGCGGCT	0.966
TCGTGCTTCA	1.04
TCGTGTAGAA	1.01
TCGTGTCCAT	0.982
TCGTGTGCAT	1.01
TCGTGTTGTG	0.989
TCGTTAAATA	0.972
TCGTTACCGA	1.04
TCGTTACGT	0.968
TCGTTAGTAT	0.968
TCGTTCACAA	1.14
TCGTTTATT	1.03

Sequence	switch fluorescence ratio
TCTAAGAATG	0.96
TCTAAGGAAG	1.01
TCTAAGGACC	0.999
TCTAAGGTGG	1.03
TCTAATAAGG	0.959
TCTACACCGG	1.02
TCTACCTTAG	1
TCTAGAATTT	1.02
TCTAGCACTT	1.02
TCTAGCGGTT	0.985
TCTAGGATCG	1.03
TCTATACGGT	1.49
TCTATCAAGG	0.981
TCTATGCTCT	1.02
TCTATGTAC	1.14
TCTATTATTA	0.987
TCTATTCAAC	0.997
TCTATTGTGG	0.998
TCTCAAAGCG	0.981
TCTCAACTCG	1.04
TCTCACTTAT	1.05
TCTCACTTGA	1.11
TCTCAGACCG	0.98
TCTCATATG	1.04
TCTCATGGGT	0.976

Sequence	switch fluorescence ratio
TCTCATTCAA	1.05
TCTCCAAACG	1.39
TCTCCATACA	1.24
TCTCCGGTAA	4.58
TCTCCTAAA	1.3
TCTCGACCAG	1.1
TCTCGATGGT	1.01
TCTCGCTCTA	1.12
TCTCGCTTCA	1.04
TCTCGTTGTG	0.996
TCTCTAACGA	1.02
TCTCTACCGA	1.05
TCTCTATTTT	0.981
TCTCTCAATG	1.29
TCTGAACATT	0.995
TCTGAATACT	1.26
TCTGAATTAG	1.06
TCTGAGGAGT	1.03
TCTGAGGGCC	0.978
TCTGAGTGCT	0.942
TCTGATGGTT	0.972
TCTGATTGGC	1.01
TCTGCACTAA	1.6
TCTGCCACTC	1.17
TCTGCGCCGA	1.07
